The text below walks through data of PMC9911399, “Two distinct binding modes provide the RNA-binding protein RbFox with extraordinary sequence specificity”.

T1: RBFOX1 RRM (Homo sapiens, UniProt Q9NWB1 109-208)
T1 sequence: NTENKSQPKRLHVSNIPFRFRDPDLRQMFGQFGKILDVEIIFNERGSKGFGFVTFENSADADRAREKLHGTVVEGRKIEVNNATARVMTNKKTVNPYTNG

B1: GUCCCUU (DNA:RNA)
RNA: GGGAGACCGGAAUUCAGAUUGUCCGUCCCUUUUAAAUCCCGUCGUAGCCACCA
DNA 1: CAATCTGAATTCCGGTCTCCC
DNA 2: TGGTGGCTACGACGGGATT
B2: GCGUUAU (DNA:RNA)
RNA: B1 RNA with U26C, C27G, C28U, C29U, U30A
DNA 1: CAATCTGAATTCCGGTCTCCC
DNA 2: TGGTGGCTACGACGGGATT
B3: GAAGCAG (DNA:RNA)
RNA: B1 RNA with U26A, C27A, C28G, U30A, U31G
DNA 1: CAATCTGAATTCCGGTCTCCC
DNA 2: TGGTGGCTACGACGGGATT
B4: GUGCACA (DNA:RNA)
RNA: B1 RNA with C27G, C29A, U30C, U31A
DNA 1: CAATCTGAATTCCGGTCTCCC
DNA 2: TGGTGGCTACGACGGGATT
B5: GGGUAUC (DNA:RNA)
RNA: B1 RNA with U26G, C27G, C28U, C29A, U31C
DNA 1: CAATCTGAATTCCGGTCTCCC
DNA 2: TGGTGGCTACGACGGGATT
B6: GGUUCUG (DNA:RNA)
RNA: B1 RNA with U26G, C27U, C28U, U31G
DNA 1: CAATCTGAATTCCGGTCTCCC
DNA 2: TGGTGGCTACGACGGGATT
B7: UAUCUAC (DNA:RNA)
RNA: B1 RNA with G25U, U26A, C27U, C29U, U30A, U31C
DNA 1: CAATCTGAATTCCGGTCTCCC
DNA 2: TGGTGGCTACGACGGGATT
B8: CUAAGAA (DNA:RNA)
RNA: B1 RNA with G25C, C27A, C28A, C29G, U30A, U31A
DNA 1: CAATCTGAATTCCGGTCTCCC
DNA 2: TGGTGGCTACGACGGGATT
B9: UUAACGC (DNA:RNA)
RNA: B1 RNA with G25U, C27A, C28A, U30G, U31C
DNA 1: CAATCTGAATTCCGGTCTCCC
DNA 2: TGGTGGCTACGACGGGATT
B10: UUACCGG (DNA:RNA)
RNA: B1 RNA with G25U, C27A, U30G, U31G
DNA 1: CAATCTGAATTCCGGTCTCCC
DNA 2: TGGTGGCTACGACGGGATT
B11: AUUAACC (DNA:RNA)
RNA: B1 RNA with G25A, C27U, C28A, C29A, U30C, U31C
DNA 1: CAATCTGAATTCCGGTCTCCC
DNA 2: TGGTGGCTACGACGGGATT
B12: CCUCAAC (DNA:RNA)
RNA: B1 RNA with G25C, U26C, C27U, C29A, U30A, U31C
DNA 1: CAATCTGAATTCCGGTCTCCC
DNA 2: TGGTGGCTACGACGGGATT
B13: ACUCCGG (DNA:RNA)
RNA: B1 RNA with G25A, U26C, C27U, U30G, U31G
DNA 1: CAATCTGAATTCCGGTCTCCC
DNA 2: TGGTGGCTACGACGGGATT
B14: AAUCUAC (DNA:RNA)
RNA: B1 RNA with G25A, U26A, C27U, C29U, U30A, U31C
DNA 1: CAATCTGAATTCCGGTCTCCC
DNA 2: TGGTGGCTACGACGGGATT
B15: GCUGCGG (DNA:RNA)
RNA: B1 RNA with U26C, C27U, C28G, U30G, U31G
DNA 1: CAATCTGAATTCCGGTCTCCC
DNA 2: TGGTGGCTACGACGGGATT
B16: ACUAGAA (DNA:RNA)
RNA: GGGAGACCGGAAUUCAGAUUGUCCACUAGAAUUAAAUCCCGUCGUAGCCACCA
DNA 1: CAATCTGAATTCCGGTCTCCC
DNA 2: TGGTGGCTACGACGGGATT
B17: UUAGGUA (DNA:RNA)
RNA: B16 RNA with A25U, C26U, U27A, A28G, A30U
DNA 1: CAATCTGAATTCCGGTCTCCC
DNA 2: TGGTGGCTACGACGGGATT
B18: CUGCAGC (DNA:RNA)
RNA: B1 RNA with G25C, C27G, C29A, U30G, U31C
DNA 1: CAATCTGAATTCCGGTCTCCC
DNA 2: TGGTGGCTACGACGGGATT
B19: UGAGCUC (DNA:RNA)
RNA: B1 RNA with G25U, U26G, C27A, C28G, U31C
DNA 1: CAATCTGAATTCCGGTCTCCC
DNA 2: TGGTGGCTACGACGGGATT
B20: CAGACGA (DNA:RNA)
RNA: B16 RNA with A25C, C26A, U27G, G29C, A30G
DNA 1: CAATCTGAATTCCGGTCTCCC
DNA 2: TGGTGGCTACGACGGGATT
B21: ACCGAGA (DNA:RNA)
RNA: B16 RNA with U27C, A28G, G29A, A30G
DNA 1: CAATCTGAATTCCGGTCTCCC
DNA 2: TGGTGGCTACGACGGGATT
B22: GACAUGU (DNA:RNA)
RNA: B1 RNA with U26A, C28A, C29U, U30G
DNA 1: CAATCTGAATTCCGGTCTCCC
DNA 2: TGGTGGCTACGACGGGATT
B23: CCUGCGG (DNA:RNA)
RNA: B16 RNA with A25C, A28G, G29C, A30G, A31G
DNA 1: CAATCTGAATTCCGGTCTCCC
DNA 2: TGGTGGCTACGACGGGATT
B24: CAAAAAU (DNA:RNA)
RNA: B16 RNA with A25C, C26A, U27A, G29A, A31U
DNA 1: CAATCTGAATTCCGGTCTCCC
DNA 2: TGGTGGCTACGACGGGATT
B25: GGAUCAU (DNA:RNA)
RNA: B1 RNA with U26G, C27A, C28U, U30A
DNA 1: CAATCTGAATTCCGGTCTCCC
DNA 2: TGGTGGCTACGACGGGATT
B26: CGGUUGG (DNA:RNA)
RNA: GGGAGACCGGAAUUCAGAUUGUCCCGGUUGGUUAAAUCCCGUCGUAGCCACCA
DNA 1: CAATCTGAATTCCGGTCTCCC
DNA 2: TGGTGGCTACGACGGGATT
B27: AAGCGUA (DNA:RNA)
RNA: B16 RNA with C26A, U27G, A28C, A30U
DNA 1: CAATCTGAATTCCGGTCTCCC
DNA 2: TGGTGGCTACGACGGGATT
B28: UGGUGUC (DNA:RNA)
RNA: B26 RNA with C25U, U29G, G30U, G31C
DNA 1: CAATCTGAATTCCGGTCTCCC
DNA 2: TGGTGGCTACGACGGGATT
B29: GAUGGAA (DNA:RNA)
RNA: B16 RNA with A25G, C26A, A28G
DNA 1: CAATCTGAATTCCGGTCTCCC
DNA 2: TGGTGGCTACGACGGGATT
B30: UGGGCUC (DNA:RNA)
RNA: B26 RNA with C25U, U28G, U29C, G30U, G31C
DNA 1: CAATCTGAATTCCGGTCTCCC
DNA 2: TGGTGGCTACGACGGGATT
B31: GAAAAAC (DNA:RNA)
RNA: B16 RNA with A25G, C26A, U27A, G29A, A31C
DNA 1: CAATCTGAATTCCGGTCTCCC
DNA 2: TGGTGGCTACGACGGGATT

Numbering of substitutions follows the chain as printed; changes in the protein carry UniProt numbers. The list shows a part of the results.

The target in this assay is T1, RBFOX1 RRM. In words: EMSA; HiTS-Eq, 1 nM pool, 10 min; buffer printed only for the single-RNA assays: 10 mM Tris pH 7.5, 150 mM NaCl, 3.4 mM EDTA, 0.001% NP-40, 30 C. The settings on record: tags: His6 N-terminal (pET28a); label: 5' 32P. In short, it runs like this:
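Purified wild-type or mutant RbFox RRM at increasing concentrations was equilibrated with 1 nM of 5′-radiolabelled RNA carrying 7 randomized nucleotides for 10 min in 50 µL. Unbound RNA was separated by 8% native PAGE and sequenced. Relative association constants came from read-count changes of each RNA species compared with the control reaction, normalised to the cognate motif.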
(In general: A gel shift assay detects complexes by their altered migration in electrophoresis.)
For the molecule B1, the binding signal was 0.00613 KA relative to UGCAUGU. Under B2 stands 0.00645 KA relative to UGCAUGU; under B3, 0.013 KA relative to UGCAUGU; under B4, 0.0205 KA relative to UGCAUGU.

On to B5, for which the binding signal is 0.0144 KA relative to UGCAUGU. Take B6: the binding signal was 0.0284 KA relative to UGCAUGU. To B7 belongs 0.00975 KA relative to UGCAUGU. To B8 belongs 0.00541 KA relative to UGCAUGU.

For B9, the binding signal was 0.00855 KA relative to UGCAUGU.

Turning to B10, the binding signal was 0.00324 KA relative to UGCAUGU. With B11, the binding signal is 0.000422 KA relative to UGCAUGU. To B12 belongs 0.0015 KA relative to UGCAUGU. Under B13 stands 0.00568 KA relative to UGCAUGU; under B14, 0.00361 KA relative to UGCAUGU. To B15 belongs 0.0195 KA relative to UGCAUGU; to B16, 0.00689 KA relative to UGCAUGU. B17: the binding signal is 0.013 KA relative to UGCAUGU.

Turning to B18, the binding signal was 0.0146 KA relative to UGCAUGU.

For B19, the binding signal was 0.0137 KA relative to UGCAUGU. B20: the binding signal is 0.00706 KA relative to UGCAUGU. Under B21 stands 0.00587 KA relative to UGCAUGU. As for B22, the binding signal is 0.0153 KA relative to UGCAUGU. Consider B23, for which the binding signal was 0.0125 KA relative to UGCAUGU. To B24 belongs 0.000541 KA relative to UGCAUGU; to B25, 0.00794 KA relative to UGCAUGU; to B26, 0.0172 KA relative to UGCAUGU. Consider B27, for which the binding signal was 0.00823 KA relative to UGCAUGU. To B28 belongs 0.031 KA relative to UGCAUGU; to B29, 0.0124 KA relative to UGCAUGU; to B30, 0.0362 KA relative to UGCAUGU.

As for B31, the binding signal is 0.00263 KA relative to UGCAUGU.
